Data published in the supplement of paper PMC10126150.
Values marked as one replicate rest on one cluster of the flow cell; about a third of the high ones do not repeat.

What follows are sequences tested on ATP (assay: switch fluorescence ratio, 500 uM ATP over buffer (Cy3 cluster intensity, sum of 5 cycles each) (fold (ratio)); higher = stronger signal-on switching upon ATP binding; sequences stand for … in TCGTCGGCAGCGTCAGATGTGTATAAGAGACAGTTTTTTTTTTTTTTTTTTTTTTTTT…TC). Conditions: aptamer strand: ATP DNA aptamer (quencher-CACCTGGGGGAGTATTGCGGAGGAAGG + anchor), 100 nM annealed; ATP concentration: 500 uM; one replicate.
Method in brief: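 Five buffer/ATP imaging cycles were run on Cy3-labelled switching-strand clusters on a modified Illumina MiSeq flow-cell, with NaOH stripping and re-annealing between cycles. In each cycle, clusters annealed to 100 nM quencher-labelled ATP aptamer were imaged in selection buffer, then after 15 min with 500 uM ATP at 22 °C. Per cluster, the fluorescence ratio is summed target-cycle over summed buffer-cycle Cy3 intensity, averaged per switch-domain sequence. Only clusters within 100-1000 RFU were kept.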
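Note: ATP exposure 15 min at 22 °C before imaging.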

Sequence	switch fluorescence ratio
GTACCTCGGT	1.01
GTACCTGGT	1.01
GTACGCCTGG	1
GTACTCGCTC	1.09
GTACTTCACT	1.41
GTAGAAAGAC	1.09
GTAGAAGGCC	1.03
GTAGAATGTA	1.03
GTAGACAGGG	1.06
GTAGACAGGT	0.998
GTAGCACCAG	1.03
GTAGCCCCGG	1.03
GTAGCGAATT	1.17
GTAGCGGACG	1.02
GTAGCTATGG	1.94
GTAGCTGGTA	0.989
GTAGGAAGAC	4.62
GTAGGAGCAA	2.68
GTAGGATATA	1.01
GTAGGATGGA	0.978
GTAGGATTGG	0.997
GTAGGCCGCG	0.971
GTAGGCCTTG	1.02
GTAGGGCATC	0.991
GTAGGGCCCG	1.02

Sequence	switch fluorescence ratio
GTAGGTCGTT	0.976
GTAGGTGGCG	0.966
GTAGGTGTGG	1.02
GTAGTAAAAG	0.986
GTAGTCAACT	0.968
GTAGTCGTCC	1.01
GTAGTGCCTG	0.994
GTAGTGCTTA	0.974
GTAGTGGTGT	0.936
GTAGTTTAGG	0.971
GTATACGTCC	1.05
GTATATACTA	1.02
GTATATATTA	1.01
GTATATTGAG	1.02
GTATATTGTG	1.02
GTATATTTCC	1.08
GTATCATCCG	0.975
GTATCCATGT	1.01
GTATGACATA	1.04
GTATGGCTAT	1.02
GTATGGG	0.984
GTATGGTATA	1.03
GTATGTATCC	0.996
GTATGTTTTT	0.979
GTATTATACG	1.04

Sequence	switch fluorescence ratio
GTATTATATT	1.01
GTATTGATTG	0.95
GTATTGGAAC	0.998
GTATTGTGTT	1.02
GTATTTAAGT	0.996
GTATTTCAGC	0.986
GTCAAAACTT	1.03
GTCAAAGAGT	1.02
GTCAAATAGT	0.927
GTCAACAAGT	1.2
GTCAACATGA	1.01
GTCAACATTA	1.01
GTCAACGTTC	0.936
GTCACAGATA	0.968
GTCACCATGG	1.06
GTCACCGGCC	1.23
GTCACCTTTC	1.93
GTCACGAAGA	1.03
GTCACGAGCG	1.05
GTCACGGAAT	1.07
GTCACGGAGG	1.01
GTCAGAAGTT	1.03
GTCAGCGACC	1.01
GTCAGGGACG	0.969
GTCAGGGTTA	1

Sequence	switch fluorescence ratio
GTCAGGTTGG	0.974
GTCAGTCCGG	1.03
GTCATAATGT	0.985
GTCATACATA	1.03
GTCATCAAGC	1.05
GTCATCCGGT	1.05
GTCATCCGTG	1.01
GTCATTAAAT	0.991
GTCATTCACT	1.16
GTCCAGGGCC	1
GTCCATGGTG	0.996
GTCCCAAATT	1.03
GTCCCTAAGT	0.991
GTCCCTCATT	0.953
GTCCGCCGTT	1.04
GTCCGGCAGC	1.11
GTCCGGTGGT	0.976
GTCCGTCCGG	0.954
GTCCTAATAA	0.988
GTCCTAGCGC	0.941
GTCGACGACT	0.991
GTCGATAGAG	0.966
GTCGCAGGGG	1.13
GTCGCATCAC	1.89
GTCGCGCCGT	0.994
